Laboratory results reported in paper PMC4336329 (PLoS ONE, 2015).
In all, about 310,000 compounds went through this assay and about 2,200 (0.71%) showed an effect of 50% or more. The effect is printed as a negative number. Some of the results follow.

Target: human ether-à-go-go-related gene (hERG) potassium channel (human, UniProt Q12809)
Assay: primary screen, population patch clamp on CHO cells stably expressing hERG

human ether-à-go-go-related gene (hERG) potassium channel, sequence (Q12809 whole entry, looked up): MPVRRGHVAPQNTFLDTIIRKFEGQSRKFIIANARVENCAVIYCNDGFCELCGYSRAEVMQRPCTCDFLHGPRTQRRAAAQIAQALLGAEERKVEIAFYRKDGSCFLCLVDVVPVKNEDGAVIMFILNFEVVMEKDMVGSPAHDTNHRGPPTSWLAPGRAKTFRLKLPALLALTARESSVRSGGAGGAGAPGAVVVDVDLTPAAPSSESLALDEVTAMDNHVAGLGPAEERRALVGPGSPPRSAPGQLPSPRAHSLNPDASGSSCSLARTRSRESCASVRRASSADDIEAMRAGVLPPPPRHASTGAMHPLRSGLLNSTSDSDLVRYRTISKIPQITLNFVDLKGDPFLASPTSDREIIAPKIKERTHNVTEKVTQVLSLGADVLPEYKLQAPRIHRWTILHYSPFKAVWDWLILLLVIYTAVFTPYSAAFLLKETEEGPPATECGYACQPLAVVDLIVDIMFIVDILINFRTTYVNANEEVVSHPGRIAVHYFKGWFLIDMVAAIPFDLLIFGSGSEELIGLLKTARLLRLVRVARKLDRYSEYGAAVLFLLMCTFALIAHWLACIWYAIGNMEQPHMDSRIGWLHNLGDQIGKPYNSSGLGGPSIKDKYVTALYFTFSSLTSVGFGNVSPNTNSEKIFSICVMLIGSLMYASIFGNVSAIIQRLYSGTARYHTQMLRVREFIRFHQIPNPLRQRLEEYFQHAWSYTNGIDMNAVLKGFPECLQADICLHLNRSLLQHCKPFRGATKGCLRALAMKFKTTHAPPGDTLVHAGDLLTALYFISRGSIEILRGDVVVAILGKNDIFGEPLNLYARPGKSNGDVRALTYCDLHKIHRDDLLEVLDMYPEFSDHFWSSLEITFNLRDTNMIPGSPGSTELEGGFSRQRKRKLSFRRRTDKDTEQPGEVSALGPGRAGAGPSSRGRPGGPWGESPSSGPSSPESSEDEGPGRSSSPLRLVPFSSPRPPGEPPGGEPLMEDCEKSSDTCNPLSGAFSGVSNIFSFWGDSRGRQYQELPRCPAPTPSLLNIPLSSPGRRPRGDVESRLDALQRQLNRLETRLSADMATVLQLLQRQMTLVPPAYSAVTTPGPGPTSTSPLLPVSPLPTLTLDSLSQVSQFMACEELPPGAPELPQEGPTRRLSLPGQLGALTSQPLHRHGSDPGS

Row | SMILES | hERG current change (%, negative = inhibition) at 1uM [%]
1 | O=C(Nc1ccc(Br)c(C(F)(F)F)c1)c1ccccc1 | 25.7
2 | CCOc1ccc2nc(NC(=O)NC3CCCCC3)sc2c1 | 6.37
3 | O=C(NCC1CCCO1)c1ccc(Cl)c(S(=O)(=O)N2CCOCC2)c1 (stereo not drawn) | 14.4
4 | O=C1CCC/C(=N/NC(=O)c2ccc(CN3c4cccc5cccc(c45)S3(=O)=O)cc2)C1 | 10.2
5 | CCCC(=O)Nc1ccc(OCC(=O)OC)cc1 | 8.66
6 | COc1ccc(COCC(O)CN2CCc3ccccc3C2)cc1OC.Cl (stereo not drawn) | 4.26
7 | COc1ccc(C)cc1S(=O)(=O)Nc1cccc(Cl)c1 | 17.7
8 | CCCc1cc(=O)n2[nH]c(-c3ccc(C)cc3)cc2n1 | 12.8
9 | Cc1ccc2nc(N(CCCN(C)C)C(=O)c3cc4ccccc4oc3=O)sc2c1.Cl | 3.84
10 | COc1ccccc1C(=O)NC(=O)COC(=O)CCOc1ccccc1C | 6.25
11 | COC(=O)C1=C(N)Oc2cc(C)n(Cc3cccnc3)c(=O)c2C1c1cc(OC)ccc1OC (stereo not drawn) | 2.03
12 | CO/N=C/c1cn(-c2ccc(Cl)cc2)nn1 | 15.5
13 | C=CCN(Cc1cccs1)C(=O)CN1CCN(S(=O)(=O)c2ccc3c(c2)OCCCO3)CC1 | 10.9
14 | Cc1ccccc1-c1nc(CS(=O)(=O)CC(=O)NCCCN2C(C)CCCC2C)c(C)o1 (stereo not drawn) | 2.14
15 | Cn1c(=NC(=O)c2ccccc2[N+](=O)[O-])sc2cccc(F)c21 | 9.25
16 | COc1cc(C(=O)NNC(=O)c2cccc(Cl)c2)ccc1OCC(=O)N1CCOCC1 | -9.17
17 | C=CC(=O)NCc1ccc(-c2csnn2)cc1 | 0.013
18 | COc1cccc(CNC(=O)CCC2CCCN(C(=O)c3ccoc3)C2)c1 (stereo not drawn) | 19.3
19 | Cc1nn(-c2ccc(Cl)cc2)c(N)c1C(O)(CSc1nccn1C)C(F)(F)F (stereo not drawn) | -2.64
20 | O=C1c2ccccc2C(=O)N1CC1=CCS(=O)(=O)C1 | 5.15
21 | Cc1ccccc1CSc1ccc(-c2ccc3c(c2)OCO3)nn1 | -8.46
22 | CCC1=NN(C(=O)C(=O)NCCc2ccccc2)C(O)(C(F)(F)F)C1 (stereo not drawn) | -3.4
23 | COc1ccc(CNC(=O)COC(=O)CN2C(=O)NC3(CCCC3)C2=O)cc1 | 10.9
24 | CC1(C(=O)NNC(=O)C2CCCCC2)CC1(Cl)Cl (stereo not drawn) | 14.2
25 | CCn1c(CNC(=O)c2ccccc2F)nnc1SCc1nc2ccccc2c(=O)[nH]1 | 7.8
26 | CCN(CC)CCC(c1ccc(N(C)C)cc1)c1c(OC)cc(OC)c2c(-c3ccccc3)cc(=O)oc12 (stereo not drawn) | 3.18
27 | Oc1c(Br)cc2oc3c(c2c1CNCc1ccccc1)CCCC3 | 16.1

Row | SMILES | hERG current change (%, negative = inhibition) at 1uM [%]
28 | CC1CCN(c2nc3c(c(=O)[nH]c(=O)n3C)n2CC(C)CSc2nnnn2-c2ccccc2)CC1 (stereo not drawn) | -0.615
29 | CN(CC(=O)Nc1cccc(S(=O)(=O)N2CCCCC2)c1)Cc1ccc(F)cc1 | -4.26
30 | O=c1[nH]c(=O)n(CCC2=CCCCC2)c(O)c1/C=N/N1CCOCC1 | -3.9
31 | O=C(NCCCCc1ccccc1)c1cc([N+](=O)[O-])cc([N+](=O)[O-])c1 | 6.09
32 | COc1cc(/C=C/C(=O)Oc2coc(CSc3ncccn3)cc2=O)cc(OC)c1OC | 9.21
33 | CCOc1ccc(N2C(=O)NC(=O)/C(=C\c3cc(OC)c(OC)cc3[N+](=O)[O-])C2=O)cc1 | 21.7
34 | C[C@@H](C(=O)Nc1ccc2c(c1)OCO2)n1c(=O)[nH]c2ccccc2c1=O | 13.4
35 | Cc1ccc(S(=O)(=O)N(Cc2ccc(Cl)cc2)c2ccccc2C(=O)NCc2cccnc2)cc1 | 7.96
36 | O=C(CO/N=C\c1ccccc1)Nc1ccccc1C(=O)N1CCOCC1 | 9.75
37 | O=C(CCN1CCOCC1)N1CCc2c([nH]c3ccccc23)C1c1cccc(Cl)c1 (stereo not drawn) | -24.3
38 | CCOP(=O)(OCC)c1nc(-c2ccc(C)cc2)oc1N1CCOCC1 | -0.453
39 | COc1cccc(OC)c1C(=O)Nc1cccc(-c2ccc(N3CCOCC3)nn2)c1 | 18.3
40 | CCOC(=O)C1CCCN(C(=O)c2cnn3c(C(F)(F)F)cc(-c4ccccc4)nc23)C1 (stereo not drawn) | 9.29
41 | Cc1ccc(S(=O)(=O)N(C)C)cc1NC(=O)COC(=O)CCC(=O)c1ccc(F)cc1 | 8.22
42 | Cc1ccc(-c2nc(N)sc2CC(=O)OCC(=O)N2C(C)CCCC2C)cc1 (stereo not drawn) | 1.93
43 | O=C(NC(=S)NCCc1ccccc1)c1ccccc1F | 13.7
44 | Cc1cc(S(=O)(=O)N2CCN=C2c2ccccc2)c(C)cc1Cl | 4.74
45 | Cc1cc(C)n2nc(C(=O)N(C)C(c3ccccc3)c3ccccc3)nc2n1 | 5.96
46 | COCCOC(=O)/C(=C\c1cc(C(C)(C)C)c(O)c(C(C)(C)C)c1)C(C)=O | -1.13
47 | Cc1cn(-c2ccccc2)c(C)c1/C=N\Nc1nc(N2CCOCC2)nc(N2CCOCC2)n1 | -0.321
48 | Cc1cccc(Nc2ncnc3c2cnn3Cc2ccccc2)c1 | 10.2
49 | CC(Cc1cccc(C(F)(F)F)c1)NCCOC(=O)c1ccccc1 (stereo not drawn) | 2.87
50 | COc1ccc(NC(=O)CN2CC(C)OC(C)C2)cc1Cl (stereo not drawn) | 28.7
51 | COc1ccc(S(=O)(=O)N2CCOC2CNC(=O)C(=O)NCCCN2CCOCC2)cc1OC (stereo not drawn) | 8.89
52 | Cc1cccc(C)c1NC(=O)C(c1ccccc1)N1CCOCC1 (stereo not drawn) | 12.5
53 | COc1ccc(NC(=O)Nc2ccccc2C(N)=O)cc1OC | 11.4
54 | O=C(CNc1cccc2ccccc12)N/N=C/C=C/c1ccco1 | 4.13
